The other results are listed elsewhere or left out.
test system: S. aureus RN4220; experiment: growth inhibition call (relative growth <= 0.2); settings: 50 µM

Growth inhibition call, inactive:
Cc1noc(C)c1NC(=O)N(C)C[C@H]1Oc2ccc(NS(=O)(=O)c3c(C)noc3C)cc2CC(=O)N([C@H](C)CO)C[C@@H]1C
C[C@H]1CCCCO[C@H](CN(C)S(=O)(=O)c2ccc(Cl)cc2)[C@@H](C)CN([C@@H](C)CO)C(=O)c2cc(NC(=O)Nc3ccc(C(F)(F)F)cc3)ccc2O1
CC1(C)C[C@@](C)(c2ccccc2)c2cc(SC#N)ccc2N1
C[C@H]1CN([C@@H](C)CO)S(=O)(=O)c2ccc(C#Cc3ccncc3)cc2O[C@@H]1CN(C)C(=O)Nc1ccc2c(c1)OCO2
CC(=C\C(=O)O)/C=C(\C)C[C@H](C)CCCC[C@H](OC(=O)[C@H](CO)[C@H](O)CCCC[C@H](C)C/C(C)=C/C(C)=C/C(=O)O)[C@@H](CO)C(=O)O
COc1ccncc1-c1ccccc1CN(C(=O)c1ccc(-c2ccc(C#N)cc2)o1)c1ccc(N2CCNCC2)cc1
CCS(=O)(=O)NCC[C@H]1CC[C@H](NC(=O)C2CCOCC2)[C@@H](CO)O1
C[C@H]1CN([C@@H](C)CO)C(=O)c2cccc(NS(=O)(=O)c3cn(C)cn3)c2O[C@H]1CN(C)Cc1ccc2c(c1)OCO2
C[C@@H]1CCCCO[C@H](CN(C)C(=O)Nc2ccc3c(c2)OCO3)[C@@H](C)CN([C@H](C)CO)C(=O)c2cc(NC(=O)Nc3ccc4c(c3)OCO4)ccc2O1
Cc1noc(C)c1S(=O)(=O)Nc1cccc2c1O[C@H](CN(C)Cc1ccccc1)[C@H](C)CN([C@@H](C)CO)C2=O
